Assay results published in the supplement of paper PMC10369915.
Some of the results follow. Rule as the data show it: active = 3.2 or more and inactive = the rest. Most of these values are background signal.

Experiments:
Assay in all cases: enrichment score (SH2-bound / input frequency) (ratio); bacterial display of known human phosphotyrosine sites (pTyr-Var adds point mutants) read by sequencing; higher = stronger binding; tyrosines were phosphorylated by kinases first
Settings in all cases: peptide library: pTyr-Var
SHP2 C-SH2 domain E139D = target: SHP2 C-SH2 domain E139D
[1] = target: SHP2 C-SH2 domain wild-type
SHP2 N-SH2 domain L43F = target: SHP2 N-SH2 domain L43F
SHP2 N-SH2 domain T42A = target: SHP2 N-SH2 domain T42A
SHP2 N-SH2 domain T52S = target: SHP2 N-SH2 domain T52S
[2] = target: SHP2 N-SH2 domain wild-type
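Also: displayed peptides selected on beads carrying the immobilized SH2 domain, with library peptides lacking any tyrosine serving as negative controls.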

Row | Binder | enrichment score (SHP2 C-SH2 domain E139D) | enrichment score [1] | enrichment score (SHP2 N-SH2 domain L43F) | enrichment score (SHP2 N-SH2 domain T42A) | enrichment score (SHP2 N-SH2 domain T52S) | enrichment score [2]
1 | ETSHNYHKFDS [MATR3_Y243] | inactive: 0.669 | inactive: 0.658 | inactive: 0.767 | inactive: 0.727 | inactive: 0.758 | inactive: 0.709
2 | IHADIYRWFNI [MARS1_Y344] | active: 3.5 | inactive: 3.16 | active: 3.3 | inactive: 2.9 | inactive: 2.76 | active: 3.61
3 | VKGGAYFPVTV [MCCC2_Y145_YF] | inactive: 0.833 | inactive: 0.773 | inactive: 0.641 | inactive: 0.708 | inactive: 0.743 | inactive: 0.891
4 | IHADICRWFNI [MARS1_Y344_Y344C] | inactive: 1.4 | inactive: 1.87 | inactive: 1.19 | inactive: 1.31 | inactive: 1.37 | inactive: 1.83
5 | KNNDGYIDYAE [MCFD2_Y135] | inactive: 0.423 | inactive: 0.535 | inactive: 0.522 | inactive: 0.45 | inactive: 0.584 | inactive: 0.543
6 | FGHTFYNQAIM [MCCC2_Y196_R193H] | inactive: 1.48 | inactive: 1.2 | inactive: 1.19 | inactive: 1.29 | inactive: 1.24 | inactive: 1.11
7 | KNNDGYTDYAE [MCFD2_Y135_I136T] | inactive: 0.504 | inactive: 0.575 | inactive: 0.524 | inactive: 0.497 | inactive: 0.49 | inactive: 0.495
8 | TEYIQYVRRKN [MAX_Y73_M74V] | inactive: 0.203 | inactive: 0.223 | inactive: 0.268 | inactive: 0.254 | inactive: 0.213 | inactive: 0.157
9 | EEGNPSYSSAR [MCCC2_Y520_Y520S] | inactive: 0.51 | inactive: 0.508 | inactive: 0.49 | inactive: 0.568 | inactive: 0.432 | inactive: 0.58
10 | YDGGCYEQLFV [MC4R_Y41_S36Y] | inactive: 0.959 | inactive: 1.01 | inactive: 1.26 | inactive: 0.989 | inactive: 0.827 | inactive: 1.41
11 | GPTLSYGRDGR [MATR3_Y158] | inactive: 0.556 | inactive: 0.704 | inactive: 0.682 | inactive: 0.55 | inactive: 0.599 | inactive: 0.734
12 | VKGGAYYPVTV [MCCC2_Y145] | inactive: 0.757 | inactive: 0.629 | inactive: 0.565 | inactive: 0.807 | inactive: 0.77 | inactive: 0.921
13 | CEETFYTMKMN [MASP2_Y401_V405M] | inactive: 1.06 | inactive: 1.5 | inactive: 1.11 | inactive: 1.02 | inactive: 0.945 | inactive: 1.66
14 | ETWHNYHKFDS [MATR3_Y243_S240W] | inactive: 0.993 | inactive: 0.587 | inactive: 0.796 | inactive: 0.58 | inactive: 0.932 | inactive: 0.688
15 | KNNDGYTDFAE [MCFD2_Y135_I136T_YF] | inactive: 0.541 | inactive: 0.433 | inactive: 0.465 | inactive: 0.508 | inactive: 0.578 | inactive: 0.526
16 | PSVVAYPKRSQ [MARK3_Y432] | inactive: 0.528 | inactive: 0.616 | inactive: 0.608 | inactive: 0.364 | inactive: 0.701 | inactive: 0.391
17 | DHAGTYGLGDR [MAPT_Y18] | inactive: 0.547 | inactive: 0.606 | inactive: 0.508 | inactive: 0.57 | inactive: 0.588 | inactive: 0.706
18 | EERNPYYSSAR [MCCC2_Y520_G517R] | inactive: 0.585 | inactive: 0.449 | inactive: 0.453 | inactive: 0.468 | inactive: 0.534 | inactive: 0.603
19 | PSAVAYPKRSQ [MARK3_Y432_V429A] | inactive: 0.44 | inactive: 0.483 | inactive: 0.392 | inactive: 0.565 | inactive: 0.522 | inactive: 0.524

Row | Binder | enrichment score (SHP2 C-SH2 domain E139D) | enrichment score [1] | enrichment score (SHP2 N-SH2 domain L43F) | enrichment score (SHP2 N-SH2 domain T42A) | enrichment score (SHP2 N-SH2 domain T52S) | enrichment score [2]
20 | FGRTFYNQAIM [MCCC2_Y196] | inactive: 1.43 | inactive: 1.57 | inactive: 1.13 | inactive: 1.3 | inactive: 0.975 | inactive: 1.3
21 | EEGNPYYSGAR [MCCC2_Y520_S523G] | inactive: 0.67 | inactive: 0.52 | inactive: 0.484 | inactive: 0.566 | inactive: 0.573 | inactive: 0.499
22 | QLQTTYPSSDN [MAX_Y115_N114T] | inactive: 0.681 | inactive: 0.531 | inactive: 0.528 | inactive: 0.802 | inactive: 0.864 | inactive: 0.527
23 | SLGKGYSDGGC [MC4R_Y35] | inactive: 0.719 | inactive: 0.743 | inactive: 0.603 | inactive: 0.508 | inactive: 0.501 | inactive: 0.786
24 | VKGGAYNPVTV [MCCC2_Y145_Y146N] | inactive: 0.804 | inactive: 0.706 | inactive: 0.786 | inactive: 0.676 | inactive: 0.692 | inactive: 0.903
25 | TEYSQYMRRKN [MAX_Y73_I71S] | inactive: 0.361 | inactive: 0.418 | inactive: 0.297 | inactive: 0.292 | inactive: 0.575 | inactive: 0.201
26 | FLGKGYSDGGC [MC4R_Y35_S30F] | inactive: 0.612 | inactive: 0.753 | inactive: 0.767 | inactive: 0.536 | inactive: 0.804 | inactive: 0.622
27 | KDQGGYTMHQD [MAPT_Y29] | inactive: 0.663 | inactive: 0.53 | inactive: 0.608 | inactive: 0.574 | inactive: 0.612 | inactive: 0.698
28 | DKATEYIQFVR [MAX_Y70_M74V_YF] | inactive: 0.653 | inactive: 0.61 | inactive: 0.64 | inactive: 0.631 | inactive: 0.663 | inactive: 0.601
29 | GSPAPYRRRKR [MBD1_Y403_P401A] | inactive: 0.252 | inactive: 0.191 | inactive: 0.235 | inactive: 0.326 | inactive: 0.199 | inactive: 0.238
30 | DGNIDYAEFAK [MCFD2_Y138_Y135N] | inactive: 0.696 | inactive: 0.612 | inactive: 0.554 | inactive: 0.455 | inactive: 0.684 | inactive: 0.472
31 | TEYIQYMRRKN [MAX_Y73] | inactive: 0.0383 | inactive: 0.0913 | inactive: 0.0591 | inactive: 0.116 | inactive: 0.44 | inactive: 0.504
32 | DKATEYIQYMR [MAX_Y70] | inactive: 0.917 | inactive: 0.829 | inactive: 0.752 | inactive: 0.691 | inactive: 0.715 | inactive: 0.821
33 | YDGKEYDPVEA [MAPRE2_Y167] | inactive: 0.703 | inactive: 0.577 | inactive: 0.446 | inactive: 0.505 | inactive: 0.468 | inactive: 0.697
34 | CDIPRYIVSQL [MAST2_Y461] | inactive: 0.894 | inactive: 0.892 | inactive: 0.848 | inactive: 0.769 | inactive: 0.877 | inactive: 1.18
35 | EERNPYFSSAR [MCCC2_Y520_G517R_YF] | inactive: 0.559 | inactive: 0.516 | inactive: 0.572 | inactive: 0.468 | inactive: 0.398 | inactive: 0.686
36 | SLGKGYFDGGC [MC4R_Y35_S36Y_YF] | inactive: 0.723 | inactive: 0.657 | inactive: 0.686 | inactive: 0.663 | inactive: 0.664 | inactive: 0.861
37 | DGFTDYAEFAK [MCFD2_Y138_I136T_YF] | inactive: 0.837 | inactive: 0.67 | inactive: 0.644 | inactive: 0.645 | inactive: 0.639 | inactive: 0.853
